{"source": "the supplement of paper PMC10126150", "note": "Sequences with one replicate were seen in a single cluster, so their values are uncertain.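 Also: ATP exposure 15 min at 22 °C before imaging.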"}
{"tested_on": "ATP", "test": "switch fluorescence ratio, 500 uM ATP over buffer (Cy3 cluster intensity, sum of 5 cycles each) (fold (ratio)); higher = stronger signal-on switching upon ATP binding; sequences stand for … in TCGTCGGCAGCGTCAGATGTGTATAAGAGACAGTTTTTTTTTTTTTTTTTTTTTTTTT…TC", "conditions": "aptamer strand: ATP DNA aptamer (quencher-CACCTGGGGGAGTATTGCGGAGGAAGG + anchor), 100 nM annealed; ATP concentration: 500 uM; one replicate", "outline": "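Imaging in selection buffer was followed by imaging after 15 min with 500 uM ATP at 22 °C, for Cy3-labelled switching-strand clusters annealed to 100 nM quencher-labelled ATP aptamer on a modified Illumina MiSeq flow-cell. Five of these buffer/ATP cycles ran, separated by NaOH stripping and re-annealing. The fluorescence ratio per cluster is summed target-cycle over summed buffer-cycle Cy3 intensity, averaged per switch-domain sequence; clusters outside 100-1000 RFU were removed.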"}
{"sequence": "GCCGGGACGT", "switch fluorescence ratio": 0.993}
{"sequence": "GCCGGGTCCA", "switch fluorescence ratio": 1}
{"sequence": "GCCGGGTGGG", "switch fluorescence ratio": 1}
{"sequence": "GCCGGTCTTG", "switch fluorescence ratio": 0.937}
{"sequence": "GCCGGTTGTT", "switch fluorescence ratio": 1.01}
{"sequence": "GCCGTAGGTC", "switch fluorescence ratio": 0.988}
{"sequence": "GCCGTCACTT", "switch fluorescence ratio": 0.996}
{"sequence": "GCCGTCGGTC", "switch fluorescence ratio": 1}
{"sequence": "GCCGTCTAGC", "switch fluorescence ratio": 1.02}
{"sequence": "GCCGTGCCCC", "switch fluorescence ratio": 1.02}
{"sequence": "GCCGTGCCTA", "switch fluorescence ratio": 1.01}
{"sequence": "GCCGTGGAAA", "switch fluorescence ratio": 1.03}
{"sequence": "GCCGTGGTTC", "switch fluorescence ratio": 1.03}
{"sequence": "GCCGTTCTGA", "switch fluorescence ratio": 0.996}
{"sequence": "GCCTAAGCGG", "switch fluorescence ratio": 1.02}
{"sequence": "GCCTAAGGTC", "switch fluorescence ratio": 0.953}
{"sequence": "GCCTAATATC", "switch fluorescence ratio": 1.05}
{"sequence": "GCCTAGAAG", "switch fluorescence ratio": 0.966}
{"sequence": "GCCTAGGCTC", "switch fluorescence ratio": 0.996}
{"sequence": "GCCTAGTCGT", "switch fluorescence ratio": 1.04}
{"sequence": "GCCTATAAAG", "switch fluorescence ratio": 0.999}
{"sequence": "GCCTATGATA", "switch fluorescence ratio": 0.989}
{"sequence": "GCCTATTACA", "switch fluorescence ratio": 1}
{"sequence": "GCCTCACACT", "switch fluorescence ratio": 0.961}
{"sequence": "GCCTCAGGGG", "switch fluorescence ratio": 3.71}
{"sequence": "GCCTCCCAAA", "switch fluorescence ratio": 2.78}
{"sequence": "GCCTCCGCGT", "switch fluorescence ratio": 4.61}
{"sequence": "GCCTCGACAG", "switch fluorescence ratio": 0.989}
{"sequence": "GCCTCTAACA", "switch fluorescence ratio": 1.04}
{"sequence": "GCCTCTTCGT", "switch fluorescence ratio": 1.01}
{"sequence": "GCCTGAGAGG", "switch fluorescence ratio": 0.993}
{"sequence": "GCCTGAGATA", "switch fluorescence ratio": 0.947}
{"sequence": "GCCTGCAGGG", "switch fluorescence ratio": 0.978}
{"sequence": "GCCTGCGTGG", "switch fluorescence ratio": 1}
{"sequence": "GCCTGGGGCG", "switch fluorescence ratio": 0.979}
{"sequence": "GCCTTAGAA", "switch fluorescence ratio": 1.03}
{"sequence": "GCCTTAGAGC", "switch fluorescence ratio": 0.997}
{"sequence": "GCCTTAGGAA", "switch fluorescence ratio": 1.15}
{"sequence": "GCCTTATGTG", "switch fluorescence ratio": 1.01}
{"sequence": "GCCTTCTTGC", "switch fluorescence ratio": 0.981}
{"sequence": "GCCTTGAAAG", "switch fluorescence ratio": 0.991}
{"sequence": "GCCTTGGAGG", "switch fluorescence ratio": 0.996}
{"sequence": "GCCTTGGGAG", "switch fluorescence ratio": 0.979}
{"sequence": "GCCTTGTGCT", "switch fluorescence ratio": 0.991}
{"sequence": "GCCTTTGATT", "switch fluorescence ratio": 0.964}
{"sequence": "GCGAAATCTC", "switch fluorescence ratio": 1.3}
{"sequence": "GCGAACACTT", "switch fluorescence ratio": 1.02}
{"sequence": "GCGAACCTTG", "switch fluorescence ratio": 1.07}
{"sequence": "GCGAATCAGA", "switch fluorescence ratio": 1.03}
{"sequence": "GCGAATGTAG", "switch fluorescence ratio": 1}
{"sequence": "GCGAATGTCA", "switch fluorescence ratio": 0.972}
{"sequence": "GCGAATTGTA", "switch fluorescence ratio": 0.962}
{"sequence": "GCGACCACAC", "switch fluorescence ratio": 1.62}
{"sequence": "GCGACCCGT", "switch fluorescence ratio": 1.16}
{"sequence": "GCGACTGATG", "switch fluorescence ratio": 0.986}
{"sequence": "GCGAGAAGGG", "switch fluorescence ratio": 1.03}
{"sequence": "GCGAGATAAA", "switch fluorescence ratio": 0.952}
{"sequence": "GCGAGCACGA", "switch fluorescence ratio": 1.02}
{"sequence": "GCGAGCCAGC", "switch fluorescence ratio": 0.945}
{"sequence": "GCGAGCTACC", "switch fluorescence ratio": 1.01}
{"sequence": "GCGAGGATCT", "switch fluorescence ratio": 1.02}
{"sequence": "GCGAGGCAGT", "switch fluorescence ratio": 1.94}
{"sequence": "GCGAGGGTAA", "switch fluorescence ratio": 1.03}
{"sequence": "GCGAGTGAAT", "switch fluorescence ratio": 1.01}
{"sequence": "GCGATAAGTG", "switch fluorescence ratio": 1.06}
{"sequence": "GCGATAATAG", "switch fluorescence ratio": 1.13}
{"sequence": "GCGATACGT", "switch fluorescence ratio": 2.56}
{"sequence": "GCGATCGTAA", "switch fluorescence ratio": 1.05}
{"sequence": "GCGATTAGGG", "switch fluorescence ratio": 0.98}
{"sequence": "GCGCAAAGCT", "switch fluorescence ratio": 1.06}
{"sequence": "GCGCAACGCT", "switch fluorescence ratio": 1.05}
{"sequence": "GCGCACGGGA", "switch fluorescence ratio": 1.03}
{"sequence": "GCGCACTTTT", "switch fluorescence ratio": 1.06}
{"sequence": "GCGCAGACCG", "switch fluorescence ratio": 0.998}
{"sequence": "GCGCAGACGG", "switch fluorescence ratio": 1.04}
{"sequence": "GCGCAGCGCC", "switch fluorescence ratio": 1.01}
{"sequence": "GCGCAGGAAT", "switch fluorescence ratio": 1.01}
{"sequence": "GCGCATGAGT", "switch fluorescence ratio": 1.01}
{"sequence": "GCGCCAAAAC", "switch fluorescence ratio": 1.18}
{"sequence": "GCGCCACAGT", "switch fluorescence ratio": 1.07}
{"sequence": "GCGCCATGGT", "switch fluorescence ratio": 1.06}
{"sequence": "GCGCCCATAT", "switch fluorescence ratio": 1.13}
{"sequence": "GCGCCCCGTT", "switch fluorescence ratio": 0.949}
{"sequence": "GCGCCGAGTC", "switch fluorescence ratio": 1.08}
{"sequence": "GCGCCGGAGG", "switch fluorescence ratio": 1.04}
{"sequence": "GCGCCTATTC", "switch fluorescence ratio": 1.12}
{"sequence": "GCGCGAAGAA", "switch fluorescence ratio": 0.955}
{"sequence": "GCGCGACCGT", "switch fluorescence ratio": 1.02}
{"sequence": "GCGCGATATG", "switch fluorescence ratio": 1.56}
{"sequence": "GCGCGATTTA", "switch fluorescence ratio": 0.993}
{"sequence": "GCGCGGCGTG", "switch fluorescence ratio": 0.962}
{"sequence": "GCGCGGTTCA", "switch fluorescence ratio": 1.01}
{"sequence": "GCGCGGTTCG", "switch fluorescence ratio": 1.06}
{"sequence": "GCGCGTTTAC", "switch fluorescence ratio": 1.7}
{"sequence": "GCGCTACCTT", "switch fluorescence ratio": 1.12}
{"sequence": "GCGCTATCGG", "switch fluorescence ratio": 1.02}
{"sequence": "GCGCTCGCTA", "switch fluorescence ratio": 1.1}
{"sequence": "GCGCTCTATG", "switch fluorescence ratio": 0.997}
{"sequence": "GCGCTCTGAC", "switch fluorescence ratio": 1.33}
{"sequence": "GCGCTGCGTT", "switch fluorescence ratio": 1.02}
